# PubChem BioAssay AID1625 (Sanford-Burnham Center for Chemical Genomics, 2009)
# This is one part of the list. Further columns of the screen follow, without active or inactive calls. Most of these compounds were active or inconclusive in the main read-out, so they are no random draw.
# Test: insulin promoter activators in MIN6 cells, imaging, high-content screening, mouse beta cells (AID 1625);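 also: total cells summed across four imaged fields per well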
# Conditions: MIN6 insulin promoter-GFP reporter, measured here: cytotoxicity, nuclei count, at 5 µM
row,SMILES,cell count [cells]
1,Cc1ccc(-c2c[n+]3c(n2-c2ccccc2)SCC3)cc1,413
2,CCOC(=O)c1cccc(NC(=O)c2cncc(Br)c2)c1,475
3,COc1cccc(OC)c1OCCN(C)C,763
4,CCOC(=O)N1CCN(c2ncnc3c2[nH]c2ccc(F)cc23)CC1,314
5,CCOC(=O)N1CCN(S(=O)(=O)c2ccc3c(c2)oc(=O)n3C)CC1,1340
6,O=C(N/N=C/c1cc(Cl)ccc1O)C(=O)Nc1ccccc1OC(F)(F)C(F)F,450
7,CCOC(=O)c1ccc(N=C2C(=S)N(c3ccc(C(=O)OCC)cc3)C(=N)N2/N=C/c2ccccc2)cc1,247
8,COc1cccc(N2CCN(c3ncccn3)CC2)c1,1410
9,CCN1/C(=C/c2cc[n+](CCCS(=O)(=O)[O-])c3ccccc23)Sc2ccccc21,1080
10,Cc1csc(NC(=O)CN(C)S(=O)(=O)c2cccc3cccnc23)n1,766
11,CC(C)(C)C(=O)Cn1ncc(Br)c(Br)c1=O,465
12,Cc1cc(NC(=O)C2CC(c3ccc(F)cc3)=NO2)n(-c2ccccc2)n1 (stereo unspecified),277
13,O=C(Nc1ccc(S(=O)(=O)N2CCCCC2)cc1)c1ccc(CN2CCOCC2)cc1,480
14,N#CC(C#N)=NNc1ccc(S(=O)(=O)N2CCCC2)cc1,344
15,Nc1c(C(=O)N/N=C/c2cccnc2)oc2nc(-c3ccccc3)cc(-c3ccco3)c12,965
16,CCn1c2ccccc2c2nnc(SCC(=O)Nc3cc(C)on3)nc21,1360
17,CC(C)(C)c1ccc(NC(=O)COc2ccc(-n3ccnc3)cc2)cc1,453
18,N#Cc1c2c(c(-n3cnc4ccccc43)n3c1nc1ccccc13)CCC2,1450
19,O=C(N=C1SCC(=O)N1c1ccccc1Cl)c1ccccc1,1390
20,CCOC(=O)C1CCN(c2c(NCCCN3CCN(Cc4ccccc4)CC3)c(=O)c2=O)CC1,434
21,CC(=O)Nc1ccccc1NC(=O)CC(C)(C)C,412
22,C=CCN1C(=O)/C(=C\C=C2\N(C)c3ccccc3C2(C)C)SC1=S,1190

row,SMILES,cell count [cells]
1,N#CC1=C(N)C(C#N)(C#N)[C@H](c2ccoc2)[C@H]2CN(Cc3ccccc3)CC=C12,843
2,CCOC(=O)c1ccc2c(c1)n(CC)c(/C=C/N(C)c1ccccc1)[n+]2CC,379
3,CC1CCN(c2ncnc3ccccc23)CC1,404
4,Cc1n[nH]c(C)c1N1C(=O)c2cccc3c(N4CCCCCC4)ccc(c23)C1=O,908
5,COc1ccc(-c2c[n+](CC(=O)c3ccccc3)c3n2CCCCC3)cc1,439
6,Cc1cc(C)c(C#N)c(SCC2COc3ccccc3O2)n1 (stereo unspecified),1070
7,CCOC(=O)c1ccc(S(=O)(=O)Nc2ccccc2-c2nnn(CC)n2)cc1,295
8,CN(C)S(=O)(=O)c1ccc(NC(=O)c2cc(-c3cccs3)nc3ccccc23)cc1,347
9,O=c1ccc(NS(=O)(=O)c2ccccc2)cn1Cc1ccc(Cl)c(Cl)c1,1480
10,COc1cc(NC(=O)Cn2ncc(Cl)c(Cl)c2=O)c(C)cc1[N+](=O)[O-],208
11,COc1ccc2c(c1)sc(=N)n2C,466
12,COc1ccc(Cn2c(-c3ccc(C)cc3)c[n+]3ccccc23)cc1,498
13,CC1CCc2c(sc3nn[nH]c(=O)c23)C1 (stereo unspecified),1260
14,C=CC[n+]1c(/C=C2\C=Cc3cc(C)ccc3N2CC)ccc2ccccc21,334
15,COc1cc([N+](=O)[O-])ccc1-c1ccc(/C=N/NC(N)=O)o1,896
16,O=C(NC1CCCC1)c1cc(COc2ccc3ncccc3c2)on1,462
17,CC(C)c1ccc(/C=C/C(=O)Nc2nncs2)cc1,436
18,COc1cccc(NC(=O)Cc2nnc(SCC(=O)c3ccccc3)n2C)c1,471
19,Cc1nc2c(oc3ccccc32)c(=O)o1,1150
20,C=CCN1C(=O)/C(=C/C=C2/N(CC)c3ccc(S(=O)(=O)N(C)C)cc3N2CC)SC1=S,1280
21,CCN(CC)c1ccc(/C=C(/C#N)c2nc3ccc(C)cc3[nH]2)c(OC(C)C)c1,1370
22,O=C(Cn1cc(C(=O)c2cccs2)c2ccccc21)NCc1cccs1,496

row,SMILES,cell count [cells]
1,Cc1cccn2c(=O)c(/C=C3\SC(=S)NC3=O)c(NCCCN3CCOCC3)nc12,1500
2,COC(=O)c1cc(NC(=O)c2cccc(Cl)c2)c(=O)oc1/C=C/Nc1cc(C)cc(C)c1,1230
3,CCCN1CCCc2cc(CN)ccc21,163
4,O=C(CN(c1cccc(C(F)(F)F)c1)S(=O)(=O)c1ccc(Cl)c([N+](=O)[O-])c1)NCc1ccc(F)cc1,318
5,c1ccc(Cn2c(-c3ccccc3)c[n+]3c2SCCC3)cc1,394
6,S=c1[nH]nc(-c2ccccc2)n1CC1CCCO1 (stereo unspecified),1220
7,O=C(N/N=C/C(Br)=C/c1ccccc1)c1n[nH]c2c1CCC2,499
8,COC1=CCC2([N+](=O)[O-])CN(CCO)CC1([N+](=O)[O-])C2 (stereo unspecified),1320
9,CC(C)SC1=NC(C)(C)C=C(/C=C/c2ccc(Cl)cc2Cl)N1,848
10,CN(C)c1ccc(C(=O)N/N=C/c2cc(Br)cc(Br)c2O)cc1,915
11,CCNc1ccc2noc3c2c1C(=O)c1ccccc1-3,900
12,Cc1cc(N/N=C/c2ccc([N+](=O)[O-])o2)nc2ccccc12,1020
13,CN1CC=C2C(C#N)=C(N)C(C#N)(C#N)[C@H](c3cccs3)[C@H]2C1,772
14,COc1cc(N2CCCC2)c(OC)cc1/C=C1/NC(=S)NC1=O,1330
15,CCN1/C(=C/c2ccc3cc(C)ccc3[n+]2C)Sc2ccc3sccc3c21,241
16,COc1ccc(-n2c(Cc3cccn3C)nnc2SCC(=O)Nc2cccc(C)c2C)cc1,1450
17,COc1ccc(NC(=O)/C(Cl)=C(/Cl)S(=O)Cc2ccccc2Cl)cn1 (stereo unspecified),476
18,CN(C)c1ccc(/C=C(/C#N)C(=O)NCc2ccccc2)o1,1150
19,Cc1nn(Cc2cccc(F)c2)c(C)c1NC(=O)c1c(Cl)cnn1C,294
20,CC(NC(=O)/C(C#N)=C1\N=C(NC(=O)c2ccco2)c2ccccc21)c1ccccc1 (stereo unspecified),1100
21,Cc1ccc(S(=O)(=O)Nc2ccc(=O)n(Cc3ccc(Cl)c(Cl)c3)c2)cc1,1440
22,Cc1ccc(C(c2sc3nc(C)nn3c2O)N2CCN(CCO)CC2)cc1 (stereo unspecified),465

row,SMILES,cell count [cells]
1,CC(=O)C1=C(C)Nc2ncnn2C1c1ccc(Cl)cc1Cl (stereo unspecified),1220
2,Nc1nc(CSCCO)nc(Nc2ccc(F)cc2)n1,498
3,Cc1ccc(C(=O)C[n+]2cc(-c3ccc(C)cc3)n3c2CCCCC3)cc1,213
4,CCN1CCc2c(sc(NC(=S)NC(=O)c3ccc(Cl)cc3)c2C(N)=O)C1,1510
5,O=C1/C(=C/c2c[nH]c3ccccc23)CCC/C1=C\c1c[nH]c2ccccc12,1070
6,Cc1oc(C)c2c(=O)ccc3c(c12)OC(N)=C(C#N)C3c1ccc(F)cc1 (stereo unspecified),1040
7,CCCCn1nc(-c2ccccc2)c2nc3ccccc3nc21,1420
8,CSc1nnc(Cc2cc(=O)[nH]c(=O)[nH]2)n1-c1cccc(C)c1,486
9,COc1ccc(NC(=O)CC2Oc3ccccc3NC2=O)cc1 (stereo unspecified),445
10,O=C(O)c1n[nH]c2c1CCCCC2,236
11,Cn1cc(/C=C2\SC(=S)N(NC(=O)c3cccc(Cl)c3)C2=O)c2ccccc21,1010
12,O=c1c2ccccc2c(C=Nc2ccccc2O)c(O)n1-c1nccs1,1500
13,CN(C)c1ccc(/C=C2\N=C(c3ccc(Cl)c([N+](=O)[O-])c3)NC2=O)cc1,1380
14,CCN1C=CC2=C(C#N)C(N)C(C#N)(C#N)C(c3ccccc3C(F)(F)F)C2C1 (stereo unspecified),625
15,CC(=O)Nc1ccc(N=Cc2c(O)c(C(=O)Nc3ccccc3)cc3ccccc23)cc1,1030
16,CCC(C)(C)n1nnnc1CN1CCN(C(c2ccccc2)c2ccccc2)CC1,417
17,CCCS(=O)(=O)n1nc(-c2ccccc2)cc1N,359
18,CC(=O)NC(c1ccc(Cl)cc1)c1c(O)ccc2ccc(O)cc12 (stereo unspecified),1500
19,COc1ccccc1Nc1nc(Cl)c(C=O)s1,1110
20,Cn1c(=O)c2c(nc(NCc3ccco3)n2CCc2ccccc2)n(C)c1=O,382
21,Oc1ccc(N=Nc2ccc3c(c2)OCO3)c2ccccc12,302
22,COc1ccc(S(=O)(=O)Nc2cc(Sc3ncn[nH]3)c(O)c3ccccc23)cc1,410

row,SMILES,cell count [cells]
1,CCCNC(=O)Cn1c(=O)/c(=C\c2ccc(-c3ccc([N+](=O)[O-])cc3)o2)s/c1=C\C(=O)C(C)(C)C,1130
2,Cc1ccccc1Cn1ccc(=NCc2ccccc2)cc1,181
3,CN1/C(=C\C(=O)CSc2nnc(NCc3ccccc3)s2)C(C)(C)c2ccccc21,432
4,O=C(/C=C/c1cn(CC(O)CN2CCCCCC2)c2ccccc12)c1cccs1 (stereo unspecified),1120
5,COc1ccc(CCNC(=O)C2CCN(Cc3nc(-c4ccccc4C)oc3C)CC2)cc1OC,463
6,COCCn1c(-c2ccc(OC)cc2)cnc1SCC(=O)Nc1cc(C)on1,421
7,Cc1nc2sccn2c1-c1csc(NCc2ccccc2)n1,372
8,CCN1/C(=C/c2ccc3cc(C)cc(C)c3[n+]2CC)Sc2cc(C)ccc21,245
9,CC1(C)CC(N2CCN(C(c3ccccc3)c3ccccc3)CC2)=CC(=[N+]2CCCCC2)C1,191
10,CNC1=C(N(C(C)=O)c2ccc(Br)cc2)C(=O)c2ccccc2C1=O,295
11,N#C/C(=C/c1ccc(N2CCCCC2)o1)c1cccc(F)c1,882
12,COc1ccc2c(C(=O)CN(C)C3CCCCC3)c[nH]c2c1,1120
13,C/C(Cl)=C\Cn1c(NCCc2ccccc2)nc2c1c(=O)n(C)c(=O)n2C,419
14,Cc1ccc(CN2CCN(CC(=O)NCCCN3CCN(c4ccc(F)cc4)CC3)C2=O)cc1,416
15,O=C(Nc1cccc(Cl)c1)Nc1nnc(-c2ccncc2)s1,390
16,COc1ccc(NC(=O)c2[nH]c(C)c(C(C)=O)c2C)cc1Cl,912
17,COC(=O)c1cc2occc2n1Cc1c(F)cccc1Cl,1160
18,CCOc1ccc(-n2c(-c3ccccc3)c[n+]3c2CCCCC3)cc1,301
